Results from the supplement of paper PMC4166925.
± gives the standard deviation of the averaged measurements. Whole data set: some 33,000 sequences, median “E-score (dimensionless, -0.5 to 0.5)” near -0.049, cut for the highest 2% near 0.37. The list shows a part of the results.

Test system: T1, PmTbr T-box DNA-binding domain (GST fusion)
T1 sequence: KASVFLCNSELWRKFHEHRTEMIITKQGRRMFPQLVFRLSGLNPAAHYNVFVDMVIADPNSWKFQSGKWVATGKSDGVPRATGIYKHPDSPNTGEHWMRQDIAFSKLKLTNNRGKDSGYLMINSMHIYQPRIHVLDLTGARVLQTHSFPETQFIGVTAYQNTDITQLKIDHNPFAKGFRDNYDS
Assay: PBM E-score of 8-mer (E-score (dimensionless, -0.5 to 0.5)); Tbr is Tbrain of the sea star Patiria miniata (Pm) or the sea urchin Strongylocentrotus purpuratus (Sp); higher = stronger binding preference; most listed sequences are background and not binding sites
Conditions: the construct has about 5 more residues each side
Outline: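 Primer extension turned Universal Agilent oligonucleotide arrays double-stranded. They were incubated with 200 nM protein in PBS (pH 7.5); the protein was a GST-fused Tbr T-box DNA-binding domain expressed in BL21 E. coli at 20 °C and purified on glutathione. Every ungapped 8-mer was scored from the scanned, quantified probe intensities, and the Universal PBM Analysis Suite gave each an enrichment E-score averaged over duplicate arrays.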

Sequence	PBM E-score of 8-mer
CTGCGGAA	-0.0961 ± 0.0056
AGCGCGAA	0.392 ± 0.014
GATATTCA	-0.113 ± 0.047
AGGGTTCG	-0.0962 ± 0.01
TCCTTGAA	-0.335 ± 0.062
ACGGATAT	-0.185 ± 0.038
CCAGGTCC	-0.114 ± 0.039
TATTGACA	0.318 ± 0.041
ACAGCCCT	-0.0731 ± 0.056
CGACATCG	0.0779 ± 0.0035
GTTATCTA	0.0556 ± 0.017
CTCTCACC	0.383 ± 0.0077
GACCAGCA	-0.175 ± 0.046
AACACCGT	0.329 ± 0.0059
CCCTCTTA	-0.135 ± 0.056
CAACGTAC	-0.0161 ± 0.041
AAGGCTTG	-0.18 ± 0.019
CCAGCGGA	-0.0366 ± 0.07
ACTAAATA	-0.147 ± 0.053
CGATAGCG	0.231 ± 0.063
ACGCATGC	-0.151 ± 0.051
CTATAATA	-0.216 ± 0.025
AGGGGTAT	-0.325 ± 0.007
CAAGCATA	-0.168 ± 0.041
GTCGCGGA	0.0192 ± 0.071

Sequence	PBM E-score of 8-mer
AACATAGC	0.114 ± 0.085
GCATAGGC	-0.146 ± 0.027
CACATCCA	0.2832 ± 0.0021
ACGCCGTA	0.0433 ± 0.031
CCAAATAC	-0.0702 ± 0.00073
ACAACACT	0.37 ± 0.016
CTCGGAAA	-0.188 ± 0.0085
CTTGCAGA	-0.115 ± 0.051
GGATGTTA	-0.00674 ± 0.011
GTAAAAGA	0.0893 ± 0.015
ACCAAAGT	0.013 ± 0.064
TTCCTCAA	-0.237 ± 0.044
ACAGCTGG	0.0532 ± 0.048
AACCAGTG	-0.0282 ± 0.04
CGAAGCAG	-0.13 ± 0.046
GAAAGCGC	0.108 ± 0.052
GAACCTTC	-0.173 ± 0.04
CTAATTTA	-0.0858 ± 0.14
CCTAGACG	0.0311 ± 0.054
CACTGCAG	0.0659 ± 0.042
AGATTCGC	0.0914 ± 0.016
ATACCACG	-0.0283 ± 0.0036
ATGGCGTG	0.166 ± 0.033
CGTGTACA	-0.0554 ± 0.17
CACTTTAA	0.235 ± 0.065

Sequence	PBM E-score of 8-mer
CCGCCGCG	-0.0208 ± 0.05
ATCCTTTG	-0.257 ± 0.062
ACCTTTTA	0.122 ± 0.12
GTATGCAC	-0.00011 ± 0.075
CACTTTTC	0.275 ± 0.021
GATCGGCC	-0.203 ± 0.0054
CCTGGATA	-0.154 ± 0.034
ATGCCCGG	-0.155 ± 0.033
AAAATCCT	-0.137 ± 0.011
ACCAGCTC	-0.0667 ± 0.051
CGTCAACG	0.237 ± 0.0036
ACATCGCG	0.249 ± 0.019
TAAGTTAA	-0.0968 ± 0.031
CCTGCCGC	0.0701 ± 0.019
TCGGTAAA	-0.118 ± 0.0062
GATTGTGC	0.122 ± 0.013
ACTGACGA	-0.0694 ± 0.068
AGATACTC	-0.119 ± 0.09
AGTCTCCG	-0.162 ± 0.069
GAAAAATA	-0.166 ± 0.078
GCTGCCAC	0.191 ± 0.0065
AAGGACAT	-0.11 ± 0.029
GAGTACTC	-0.0401 ± 0.097
GCAGTGTA	-0.139 ± 0.063
TGGTGGAA	-0.00937 ± 0.0075

Sequence	PBM E-score of 8-mer
AACACTCA	0.323 ± 0.0094
AGGAGCCA	-0.0993 ± 0.012
ACAGGCCG	-0.0242 ± 0.021
CTGTCACA	0.4 ± 0.0052
AAAAATTA	0.0479 ± 0.016
GAAAGCCA	-0.235 ± 0.023
ATGCGTGC	0.0332 ± 0.014
GAATGTCC	-0.279 ± 0.0091
ATGAAGAC	-0.109 ± 0.044
AACTTTAA	-0.129 ± 0.17
TAGCTGGA	-0.1769 ± 0.00071
AAGGATCA	-0.022 ± 0.029
ATAAGGCA	-0.0131 ± 0.013
CTCGTGGA	-0.209 ± 0.18
GAGCGTGA	0.248 ± 0.021
GGGAGCTA	-0.182 ± 0.025
CGTACGCC	-0.166 ± 0.0083
ATGAGTTG	-0.0673 ± 0.11
ATGTAGAA	-0.291 ± 0.077
CAATCAAG	-0.209 ± 0.1
CACAGTTA	0.141 ± 0.032
AAATCGCC	0.1971 ± 0.0016
CGAAAAGA	-0.277 ± 0.1
ACTAGGCG	0.167 ± 0.052
CGAATCGA	0.201 ± 0.017

Sequence	PBM E-score of 8-mer
TGCAAACA	0.11 ± 0.022
ATCCCGCG	-0.042 ± 0.095
CGTTGCTC	-0.0637 ± 0.0068
GTTGTAGA	0.0094 ± 0.012
CGTGTCTC	0.00564 ± 0.025
AAGCAGAT	-0.0935 ± 0.026
ACGATACC	-0.0725 ± 0.0011
CGTACACA	0.0802 ± 0.041
TGCGATAA	0.288 ± 0.012
ATGTCACC	0.385 ± 0.015
CACTAACG	0.212 ± 0.02
CCTTCCTC	-0.148 ± 0.011
CGGTAAAA	-0.172 ± 0.0061
GACCTGCC	0.148 ± 0.0062
GCGTGACC	0.329 ± 0.038
GAATATTC	-0.0776 ± 0.032
AAGCCCAA	-0.237 ± 0.015
CACAGAGA	-0.0694 ± 0.036
CAACCGGA	-0.0889 ± 0.027
CAATCTAG	0.0154 ± 0.025
AACGTGGC	0.166 ± 0.05
ACTCGGGA	-0.142 ± 0.0029
CGATCCGC	-0.137 ± 0.12
AGTATTAC	-0.302 ± 0.048
CCCTCAGG	-0.215 ± 0.048

Sequence	PBM E-score of 8-mer
ACTGAAAT	0.209 ± 0.06
ATGATGTC	-0.13 ± 0.024
AGTTACTG	-0.0814 ± 0.12
AGAAATGG	0.00789 ± 0.085
CCTGGCTA	0.0268 ± 0.0048
CAGGAGTC	-0.113 ± 0.015
CACAAGGC	-0.0467 ± 0.053
TGAGCTCA	-0.117 ± 0.012
AGACTGGA	-0.0672 ± 0.019
AATGTCCG	-0.16 ± 0.054
CACATGTG	0.343 ± 0.026
CATCAACA	0.134 ± 0.061
AAGCGAAC	-0.0211 ± 0.029
ATACGACC	-0.0601 ± 0.011
CGCGCTCA	0.13 ± 0.034
CTGGGCTA	-0.101 ± 0.052
CTATTTCA	-0.0412 ± 0.045
AAATCATA	-0.131 ± 0.0072
CGCCAGGA	0.116 ± 0.013
AGCGACGG	-0.00054 ± 0.023
ACGAGCAG	0.0386 ± 0.033
ACATTGGC	0.167 ± 0.058
ACCGTCGT	0.162 ± 0.045
CATCTTCC	0.0383 ± 0.0049
CACCGGAC	-0.0947 ± 0.019

Sequence	PBM E-score of 8-mer
GGGCGAAC	-0.0669 ± 0.16
CGGGCGAA	-0.155 ± 0.051
GTCGGTTA	0.057 ± 0.032
CGGAGAGA	-0.12 ± 0.012
CAGGATGG	-0.144 ± 0.021
AGGCGAAA	-0.0128 ± 0.028
TAGCGATA	0.0784 ± 0.028
AACCATGA	-0.158 ± 0.067
CAGGTTAC	0.0929 ± 0.012
ATCCAACG	0.073 ± 0.08
AATGCATT	-0.179 ± 0.036
AAGGAAAC	-0.0735 ± 0.021
ACCCAGTG	-0.006 ± 0.002
GACGGGAC	0.0433 ± 0.035
GAATCCAA	-0.196 ± 0.0059
ACACACTA	0.139 ± 0.024
ATGTCCGA	-0.194 ± 0.043
AGTGGACC	-0.1763 ± 0.0016
AATGGGGC	-0.0789 ± 0.075
CAGGGATG	-0.0936 ± 0.059
CTGTAACC	-0.0689 ± 0.0016
CGATTTAA	-0.0602 ± 0.0088
